The results in this text go back to PMC4336329 (PLoS ONE, 2015).

Structures are written as SMILES. In all, about 310,000 compounds went through this assay and about 2,200 (0.71%) showed an effect of 50% or more. Effects have a minus sign here. This is one part of the list.

Sequence of human ether-à-go-go-related gene (hERG) potassium channel (Q12809 whole entry, looked up): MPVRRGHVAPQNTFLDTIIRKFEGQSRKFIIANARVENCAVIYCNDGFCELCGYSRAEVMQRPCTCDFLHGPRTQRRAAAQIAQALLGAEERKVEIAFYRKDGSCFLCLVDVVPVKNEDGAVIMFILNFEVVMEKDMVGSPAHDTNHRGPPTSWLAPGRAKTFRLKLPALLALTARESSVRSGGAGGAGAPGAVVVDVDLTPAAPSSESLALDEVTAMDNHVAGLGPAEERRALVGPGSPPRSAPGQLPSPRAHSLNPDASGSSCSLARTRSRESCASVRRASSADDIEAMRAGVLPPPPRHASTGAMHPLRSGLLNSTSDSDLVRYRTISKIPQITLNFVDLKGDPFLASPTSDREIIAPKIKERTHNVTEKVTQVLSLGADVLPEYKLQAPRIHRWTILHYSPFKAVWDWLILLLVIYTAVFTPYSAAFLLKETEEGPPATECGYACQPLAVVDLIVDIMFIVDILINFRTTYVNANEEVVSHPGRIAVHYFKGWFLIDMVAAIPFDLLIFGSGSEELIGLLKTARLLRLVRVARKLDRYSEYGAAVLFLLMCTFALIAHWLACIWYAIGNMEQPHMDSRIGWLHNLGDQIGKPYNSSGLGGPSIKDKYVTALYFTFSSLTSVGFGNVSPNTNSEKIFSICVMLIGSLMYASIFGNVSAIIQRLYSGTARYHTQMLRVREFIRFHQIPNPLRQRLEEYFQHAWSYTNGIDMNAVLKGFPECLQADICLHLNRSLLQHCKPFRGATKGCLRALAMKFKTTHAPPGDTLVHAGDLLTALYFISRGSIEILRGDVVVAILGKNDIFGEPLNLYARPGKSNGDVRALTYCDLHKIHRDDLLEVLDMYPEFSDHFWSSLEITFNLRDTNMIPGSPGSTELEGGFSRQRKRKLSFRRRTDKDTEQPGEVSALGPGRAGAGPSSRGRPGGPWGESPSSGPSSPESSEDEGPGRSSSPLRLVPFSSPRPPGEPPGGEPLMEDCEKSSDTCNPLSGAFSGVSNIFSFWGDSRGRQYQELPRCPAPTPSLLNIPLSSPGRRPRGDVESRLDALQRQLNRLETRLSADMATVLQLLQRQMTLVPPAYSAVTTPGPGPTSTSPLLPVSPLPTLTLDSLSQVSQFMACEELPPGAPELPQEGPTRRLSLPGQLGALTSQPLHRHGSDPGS

The target of the assay is human ether-à-go-go-related gene (hERG) potassium channel (human, UniProt Q12809). Kind of assay: primary screen, population patch clamp on CHO cells stably expressing hERG. As to the method:
Briefly, Chinese hamster ovary (CHO) cells stably expressing the hERG channel were dislodged from tissue culture flasks and dispensed into PPC plates. […] During the recording, background leak currents were estimated by a 100 ms step to -80 mV from an initial holding potential of -70 mV and subtracted from the subsequent current measurement. The campaign was conducted in two phases using slight differences in recording protocol. In the first phase, the initial voltage pulse used a 100 ms step to -30 mV from a holding potential of -70 mV, a 2 s conditioning step to +25 mV, and a 2 s test step to -30 mV. During the second phase of the screen, the potential during the conditioning step was raised to +45 mV. In both phases of the campaign, a secondary voltage pulse was applied using the same parameters as the second phase initial pulse. The initial and secondary pulses were applied in the absence of compound, and upon application of 1 μM and 10 μM test concentrations. Small molecule effects on hERG current density were quantified by […].
Turning to `COc1ccc(N2CCN(C(=O)c3cc([N+](=O)[O-])ccc3N3CCN(CCO)CC3)CC2)cc1`, the “hERG current change (%, negative = inhibition) at 1uM” value was -1.2%.
The figure for `CC(=O)c1c(OC(=O)c2ccccc2)c2ccccc2n1C` is 2.42%; for `COc1ccc(CC(=O)N(C)CC(=O)Nc2ccccc2C(F)(F)F)cc1S(=O)(=O)N1CCOCC1` it is 10.2%.
`O=C(Nc1ccccc1)C1=C[C@@H](C2CCCCC2)C[C@@H](OCCCCO)O1`: the “hERG current change (%, negative = inhibition) at 1uM” value stood at 10.1%.
The figure for `O=C(COc1ccc2ccccc2c1Br)Nc1cccnc1` is 18.9%.
Regarding `Cc1ccc(C)c(NS(=O)(=O)c2cc(C(=O)NCc3ccncc3)ccc2C)c1`, the “hERG current change (%, negative = inhibition) at 1uM” value is given as -5.08%.
The result for `COc1cccc(CNC(=O)CCS(=O)(=O)c2ccc3c(c2)NC(=O)C(C)S3)c1` (stereo not shown) reads 18.2%.
In the case of `Cc1cc(C)cc(NS(=O)(=O)c2cc(Br)cnc2N)c1`, the “hERG current change (%, negative = inhibition) at 1uM” value is 17.4%.
As for `CC(Sc1nnc(Cc2ccccc2)o1)C(=O)Nc1ccccc1[N+](=O)[O-]` (stereo not shown), the “hERG current change (%, negative = inhibition) at 1uM” value was 10.8%.
The result for `CCOc1ccc(CN2CCN(Cc3ccc4cc(F)ccc4n3)CC2CCO)cc1` (stereo not shown) reads -79.3%.
The result for `NC(=O)c1snnc1-c1ccccc1` reads 10.9%; that for `Cc1ccc2c(c1)C(c1ccccc1)CC(=O)O2` (stereo not shown), 7.8%; that for `NS(=O)(=O)c1cc2c(cc1Cl)NC(Cc1ccccc1)NS2(=O)=O` (stereo not shown), 7.31%.
Regarding `COc1ccc(COc2ccccc2C(=O)Nc2ccccn2)cc1[N+](=O)[O-]`, the “hERG current change (%, negative = inhibition) at 1uM” value came out at 0.65%.
The result for `CC(C)CSc1nc2c(c(=O)[nH]c(=O)n2C)n1CCc1ccccc1` reads 14.1%; that for `COC(=O)C(=O)Nc1nnc(COc2ccccc2)s1`, 9.5%; that for `CCC(=O)c1cn(/C(=C\C(=O)OC(C)(C)C)CCC(OC)OC)cc1CC`, 8.48%.
The figure for `Cc1ccc(S(=O)(=O)N2CCCCC2)cc1C(=O)N(C)CC(=O)Nc1cccc(F)c1` is -37.5%; for `COC(=O)[C@@H](NC(=O)c1ccccc1)[C@@H](C)O` it is 5.85%; for `CN(C)c1ccc(N=Nc2cccc3ccoc23)cc1` it is 16.8%.
`O=C(NCCC1CCCCN1S(=O)(=O)c1ccccc1)C(=O)Nc1ccccc1` (stereo not shown): the “hERG current change (%, negative = inhibition) at 1uM” value is listed as 10.6%.
The figure for `Cc1cccc(C)c1-n1nnnc1-c1cnccc1C(F)(F)F` is 12.2%; for `CCn1cc(C(=O)N[C@H](C(=O)NCCCO)C(C)C)c(=O)c2cc3c(cc21)OCO3` it is 16.2%; for `COc1ccccc1-n1c(CNC(=O)COc2ccccc2)n[nH]c1=S` it is 9.94%.
The figure for `COc1cccc(CNC(=O)Cc2ccc(Br)cc2)c1` is 13.4%; for `O=C(C1CCOCC1)N1CCCC(N2CCN(c3cccc(Cl)c3)CC2)C1` (stereo not shown) it is 1.19%.
The result for `CC(OC(=O)c1ccc(S(=O)(=O)N(C)C)cc1)C(=O)Nc1ccc(Cl)cn1` (stereo not shown) reads 6.72%; that for `CCCn1c(O)c(N=NC(=O)c2cccnc2)c2cc(Br)ccc21`, 9.2%; that for `Cc1cc(C)cc(NC(=S)/C(=C(\[O-])c2ccc(Cl)cc2Cl)[n+]2ccc(C(C)(C)C)cc2)c1`, 9.66%.
On to `Br.O=C1SC(SC(=Nc2ccccc2)Nc2ccccc2)C(=O)N1c1ccccc1` (stereo not shown), for which the “hERG current change (%, negative = inhibition) at 1uM” value was found to be 15.1%.
The result for `CCOC(=O)N1CCN(S(=O)(=O)c2ccc(C(=O)Nc3sc4c(c3C(N)=O)CCN(CC)C4)cc2)CC1` reads 17.3%; that for `CN(C)C(=O)COc1ccc2ccc(=O)oc2c1`, 3.48%.
With `COC(=O)C(O)(c1ccc(N(C)C(=O)COc2ccccc2)cc1)C(F)(F)F` (stereo not shown), the “hERG current change (%, negative = inhibition) at 1uM” value worked out at 2.34%.
The figure for `Cc1nc(N2CCN(S(=O)(=O)c3ccc(F)cc3)CC2)c2c(-c3cccs3)csc2n1` is 8.75%; for `COC(=O)C1(C)NC(c2ccco2)C2C(=O)N(c3ccc(C)cc3)C(=O)C21` (stereo not shown) it is 9.88%; for `COc1ccc(-c2[nH]ncc2CN2CCC(c3ccncc3)CC2)cc1F` it is -51.4%.
The figure for `O=C(O)COc1ccccc1/C=N/NC(=O)CSc1nnc(SCc2ccc(Cl)cc2)s1` is 12.1%; for `CCCCCCC1CC(=O)NC(=O)N1` (stereo not shown) it is 12.6%.
The result for `CCCOc1ccc(N2C(=O)CC(N(CCc3ccc(S(N)(=O)=O)cc3)C(C)=O)C2=O)cc1` (stereo not shown) reads 21.6%; that for `O=C(CCc1nnc(CCCCc2ccccc2)o1)N1CCCCC1CCO` (stereo not shown), 10%; that for `Cc1cc2oc(=O)cc(CN3CCN(Cc4ccc5c(c4)OCO5)CC3)c2cc1C`, 0.724%.
With `Cc1ccc(CN2C(=O)CCC2C(=O)NC2CC2)cc1` (stereo not shown), the “hERG current change (%, negative = inhibition) at 1uM” value came out at 12.7%.
The figure for `NS(=O)(=O)c1ccc(N2C(=O)C(=O)/C(=C(/O)c3ccccc3)C2c2ccc(Cl)cc2)cc1` (stereo not shown) is 13.9%; for `COc1ccc(C(=O)NCCCOC(=O)c2ccc(OC)cc2)cc1` it is 1.21%.
The result for `CCc1ccc(-c2cc(C(=O)O)c3ccccc3n2)s1` reads 13%; that for `Cc1ccc2c(c1)N(C(=O)CCC(=O)Nc1ccccc1Cl)CC(C)O2` (stereo not shown), 11.6%.
The result for `COC(=O)c1ccc(/C=N\N2CCN(Cc3ccc(C)cc3)CC2)cc1` reads 9.94%; that for `COc1ccc(-[n+]2c(-c3ccccc3)cc(-c3ccc(C)cc3)cc2-c2ccccc2)cc1.[O-][Cl+3]([O-])([O-])[O-]`, -52%.
`CC(=O)c1ccc(Nc2c([N+](=O)[O-])ccc3nonc23)cc1`: the “hERG current change (%, negative = inhibition) at 1uM” value is given as -0.202%.
The figure for `Cc1cccc(C(=O)NCC(=O)N2CCN(S(=O)(=O)c3cc(C)ccc3C)CC2)c1` is 14.5%; for `CCC(=O)NC(c1cccs1)c1cc(Cl)c2ccccc2c1O` (stereo not shown) it is -7.75%.
The result for `Cc1nnnn1CC(=O)Nc1cccc([N+](=O)[O-])c1` reads 5.71%; that for `CCn1c(=O)c2cc(C(=O)N(C)c3cc(C)ccc3OC)sc2c2ccccc21`, 11.8%.
With `COc1ccc(N2C(=O)CN(Cc3cc(OC)c(OC)c(OC)c3)C2=S)cc1`, the “hERG current change (%, negative = inhibition) at 1uM” value was 13.2%.
The result for `COc1cc(NC(=O)c2ccccc2OCc2ccccc2)cc(OC)c1OC` reads 20.7%; that for `Cn1cc(CN2CCN(c3ncccn3)CC2)c(-c2cccc(Cl)c2)n1`, -1.8%; that for `CCN1CCN(Cc2ccccc2NC(=O)Nc2ccc(C)cc2)CC1`, 7.04%.
The figure for `Brc1ccc(-c2csc(N/N=C/c3ccc4c(c3)OCO4)n2)cc1` is 12.9%.
The figure for `Cc1cccc(OCCNC(=S)NC(=O)c2cccnc2)c1` is 16.9%; for `O=C(CN1CCCCC1)N1c2ccccc2Oc2ccccc21` it is 9.91%; for `CCc1nnc(NC(=O)c2ccc(Cl)c(S(=O)(=O)N3CCc4ccccc4C3)c2)s1` it is 11.8%.
`COc1ccc(CCn2c(N3CCOCC3)nc3c2c(=O)[nH]c(=O)n3C)cc1`: the “hERG current change (%, negative = inhibition) at 1uM” value was found to be 2.83%.
Take `C#CCOCCOCCOCCNc1nc(N2CCN(C(=O)CCCCCCCCCCNC(=O)[C@@H]([C@H](C)O)n3cc(C)nn3)CC2)nc(N2CCN(C(=O)CCCCCCCCCCNC(=O)[C@@H]([C@H](C)O)n3cc(C)nn3)CC2)n1`: the “hERG current change (%, negative = inhibition) at 1uM” value amounted to 4.12%.
The figure for `O=C(NCc1ccccc1)c1ccc(-c2ccccc2C(F)(F)F)o1` is 5.49%; for `O=c1c2ccccc2oc2cc(-c3ccc4[nH]ccc4c3)ccc12` it is 7.99%; for `CCc1ccccc1NC(=O)CN(C)S(=O)(=O)c1ccc2c(c1)c(=O)n(C)c(=O)n2C` it is 10.7%.
The figure for `O=C(O)CCNc1ccc2c(c1)OCCO2` is -11.3%.
The figure for `CCOC(=O)CCNC(=O)N1CCCC(CNS(=O)(=O)Cc2ccccc2)C1` (stereo not shown) is 8.76%; for `Cc1cc(SCC(=O)OCC(=O)NCc2ccc3c(c2)OCO3)c(C)cc1Br` it is -13.9%.
Consider `Cn1ccnc1SCC(=O)c1ccc(Br)cc1`, for which the “hERG current change (%, negative = inhibition) at 1uM” value stood at 2.05%.
The result for `Cc1nc2ccc(CCO)cc2s1` reads 8.56%.
The result for `CC(=O)Oc1cccc(N2C(=O)c3ccccc3C2=O)c1` reads -7.37%; that for `CNCCc1c(C)n[nH]c1C.Cl`, 16.3%; that for `c1ccc2[nH]c(-c3nc4ccccc4[nH]3)nc2c1`, 3.07%.
The figure for `Cc1ccc(CN(C)C(=O)COC(=O)CSc2ccc([N+](=O)[O-])cc2)cc1` is 8.47%.
Consider `COc1ccc(C(=O)C(C)(C)NO)cc1.Cl`, for which the “hERG current change (%, negative = inhibition) at 1uM” value was 12.5%.
The result for `CCN1CCN(C(=O)c2cc3ccc(OC)cc3[nH]2)CC1` reads 10.3%; that for `O=C(Nc1ccccc1)c1c(F)cccc1F`, 10.4%.
The result for `CCCNC(=S)N1CCC(C(=O)c2ccc(OC)cc2)CC1` reads 11.2%; that for `CCOC(=O)C1=C(C)NC(=O)NC1c1ccc(OC(=O)c2ccco2)c(OC)c1` (stereo not shown), 10.1%.
The figure for `O=S(=O)(Nc1ccc(-c2cnco2)cc1)c1ccccc1` is 7.72%; for `COc1ccc(-n2c(SCC(=O)Nc3cc(C)on3)nc3c(c2=O)SCC3)cc1` it is 16.9%.
For the compound `Cc1ccc2nc3c(cc2c1)CC1(C(=O)N(C)C(=O)N(C)C1=O)C1COCCN31` (stereo not shown), the “hERG current change (%, negative = inhibition) at 1uM” value is -11.7%.
Consider `CN1CCN(C(=O)c2ccc(-c3cccs3)s2)CC1`, for which the “hERG current change (%, negative = inhibition) at 1uM” value is reported as 9.86%.
The figure for `CCN1CCN(Cc2ccc(NC(=O)c3cc(NC(=O)c4cnn(-c5ccccc5)c4N)cc(OC)c3)cc2C(F)(F)F)CC1` is 11.6%.
